Laboratory results from PubChem BioAssay AID1645887 (National Center for Advancing Translational Sciences (NCATS), 2021).
“And” between values parts separate entries of the source, which are not always exact repeats. Identical values can stand only once. Out of some 16,000 compounds screened, about 40 (0.2%) were called active. About 1% were inconclusive and are not listed. Calls follow the shape of the dose curve; as a rule, active = well fitted activation curve with a large enough effect; inconclusive = small, poorly fitted or top-dose-only effect, or another doubt; inactive = no such curve, though single readings can be large or run the other way. Some of the results follow.

Molecular target: Rap guanine nucleotide exchange factor 4 (Homo sapiens) (UniProt Q8WZA2)
Assay: Validation qHTS for agonist of cAMP-regulated guanine nucleotide exchange factor 4 (EPAC2);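 also: exchange makes BODIPY-GDP fluorescence drop when released from Rap1B; series mostly up to about 150 µM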
Conditions: EPAC2 Rap1B BODIPY-GDP exchange, fluorescence; activation: stronger effect = higher value
Procedure, shortened: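 Fluorescent exchange assay: 100 nM EPAC2 with 250 nM RAP1B-BODIPY-GDP and 50 uM GDP; compound added, 5 min at room temperature, then read (ex 480/em 540 nm) every 5 min for 30 min. Normalized to 6.5 mM cAMP agonist control.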
% is scaled to controls: 0 for no effect and ±100 for the full control effect.

UniProt Q8WZA2, sequence (Q8WZA2 whole entry, looked up): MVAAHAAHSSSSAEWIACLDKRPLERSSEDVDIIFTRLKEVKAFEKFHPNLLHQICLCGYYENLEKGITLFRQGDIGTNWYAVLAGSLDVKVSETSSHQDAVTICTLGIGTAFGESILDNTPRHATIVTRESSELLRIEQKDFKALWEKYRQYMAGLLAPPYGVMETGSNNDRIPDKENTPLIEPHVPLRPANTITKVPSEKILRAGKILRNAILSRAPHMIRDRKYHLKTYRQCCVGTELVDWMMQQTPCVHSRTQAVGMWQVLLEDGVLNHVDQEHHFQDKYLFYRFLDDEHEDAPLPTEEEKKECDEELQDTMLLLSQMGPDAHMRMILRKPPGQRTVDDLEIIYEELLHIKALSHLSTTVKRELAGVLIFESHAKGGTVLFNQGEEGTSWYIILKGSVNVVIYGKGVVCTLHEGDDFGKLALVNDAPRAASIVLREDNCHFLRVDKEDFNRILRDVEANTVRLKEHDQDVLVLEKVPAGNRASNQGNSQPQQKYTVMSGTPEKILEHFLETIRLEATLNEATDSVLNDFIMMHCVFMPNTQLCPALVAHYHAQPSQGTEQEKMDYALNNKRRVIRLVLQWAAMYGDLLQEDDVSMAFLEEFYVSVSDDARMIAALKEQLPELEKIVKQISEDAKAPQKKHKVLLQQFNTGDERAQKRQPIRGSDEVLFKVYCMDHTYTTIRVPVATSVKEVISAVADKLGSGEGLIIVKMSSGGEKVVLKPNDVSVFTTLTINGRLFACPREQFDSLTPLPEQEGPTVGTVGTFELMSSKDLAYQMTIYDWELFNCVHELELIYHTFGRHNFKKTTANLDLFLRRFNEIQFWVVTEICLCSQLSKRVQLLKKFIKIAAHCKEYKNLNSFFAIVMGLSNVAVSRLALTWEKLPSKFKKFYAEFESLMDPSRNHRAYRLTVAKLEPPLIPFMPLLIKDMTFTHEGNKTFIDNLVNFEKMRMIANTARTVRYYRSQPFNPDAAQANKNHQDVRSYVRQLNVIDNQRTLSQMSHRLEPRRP

activation, inactive:
NC(N)=N[C@@H](CCC(=O)O)C(=O)O -33%
COc1cc([C@H]2Oc3cc([C@H]4Oc5cc(O)cc(O)c5C(=O)[C@@H]4O)ccc3O[C@@H]2CO)ccc1O -36.9%
CC[C@@H]1[C@H]2CCCC(=O)N3CC[C@@H](C[C@@H]1OC(=O)NCc1ccccc1)[C@@H]23 -2.95%
Nc1nc(=O)n([C@@H]2CS[C@H](CO)O2)cc1F -15.8%
O=C(c1cccc(F)c1)N1CCC2(CC1)CCN(c1ccccc1)CC2 0.837%
NC(N)=NCCCC(NC(=O)C(N)Cc1ccc(O)cc1)C(=O)O (stereo unspecified) -20.2%
CC(c1ccc(N(C)C)cc1)c1ccnc2ccccc12 (stereo unspecified) 8.47%
Cc1cc(C(=O)Nc2cccc(-c3nc(CNC(=O)c4sc(C)nc4C)c(C)o3)c2)c(C)o1 8.96%
Cc1c(C(=O)N2CCOc3ccc(Cl)cc3C2)sc2ncnc(NCCc3ccccn3)c12 -13.5%
COc1ccc(C(=O)N2CCC3(CC2)CCN(c2ccccn2)CC3)cc1 -17.2%
C[C@H]1NCc2cc(-c3ccc4c(=O)c(C(=O)O)cn(C5CC5)c4c3OC(F)F)ccc21 1.8%
C[N+]1(CC2COC(c3ccccc3)(c3ccccc3)O2)CCCCC1 (stereo unspecified) 0.308%
O=C(C[N+]1(c2ccccc2)CCOCC1)c1ccccc1 -20.6%
Cc1ccc2c(c1)CC[C@H]1CC(=O)CC[C@@]21C -4.37%
COc1cc(SC)ccc1C(=O)N1CCC(Cc2ccccc2)CC1 -30.7%
CC(=O)Nc1ccccc1-c1nc(CNC(=O)c2ccc(Cl)cc2)c(C)o1 -6.64%
Cn1cccc1C(=O)N1CCC2(CC1)CN(Cc1ccc(C#N)cc1)C2 6.55%
N#CCCn1c(=O)cnc2cnc(Oc3cccc(Cl)c3)nc21 -13.3%
Cn1c(CCNC(=O)C2CC23CCN(C(=O)C2=CCCC2)CC3)nc2ccccc21 (stereo unspecified) -1.15%
CC#C[C@]1(O)CC[C@H]2[C@@H]3CCC4=CC(=O)CCC4=C3[C@@H](c3ccc(N(C)C)cc3)C[C@@]21C -5.49% and -1.65%
Cc1csc(CN(C)C(=O)c2sc3ncnc(NCC4CCCO4)c3c2C)n1 (stereo unspecified) -1.65%
COc1ccc(-c2nc3cnc(OC)nc3n(Cc3cccs3)c2=O)cc1 -21.1%
Cc1ccc(C(=O)Nc2cccc(-c3nc(CNC(=O)C4CCCCC4)c(C)o3)c2)s1 -5.79%
O=c1c(-c2ccc(F)cc2)nc2cncnc2n1Cc1ccc(F)cc1 -14%
CCCCCCCCCCCCCCC[C@@H](O)[C@H](CO)NC(=O)CCCCCCC 3.52%
COC(=O)c1c(OCc2ccccn2)cc(=O)n2c1CCN(C(=O)c1cc(C(C)C)nn1C)CC2 6.39%
COc1cccc2c1C(=O)c1c(O)c3c(c(O)c1C2=O)C[C@@](O)(C(=O)CO)C[C@@H]3O[C@H]1C[C@H](N)[C@H](O[C@@H]2CCCCO2)[C@H](C)O1 1.58%
COc1cc([C@@H]2c3cc4c(cc3[C@@H](O[C@@H]3O[C@@H]5CO[C@@H](C)O[C@@H]5[C@H](O)[C@@H]3O)[C@H]3COC(=O)[C@H]23)OCO4)cc(OC)c1O -22.5%
COCCn1c(=O)c(-c2ccc(OC)cc2)nc2cnc(Oc3ccccc3)nc21 -39.1%
COC(=O)C1=CO[C@@H](O)[C@@H]2C(CO)=CC[C@H]12 -16.9%
CC(=O)Nc1ccn(C2COC(COC(=O)c3ccccc3)O2)c(=O)n1 (stereo unspecified) -7.22%
NC(=S)N=Nc1ccc(NN=C(N)N)cc1 -8.63%
O=C(O)C1CC(C2CCCCN2)CN2CCCCC12 (stereo unspecified) -14.9%
CCCCCCNC(=O)n1cc(F)c(=O)[nH]c1=O -20.9%
CCC[C@@H]1C[C@@H](C(=O)N[C@@H]([C@H]2O[C@H](SC)[C@H](OP(=O)(O)O)[C@@H](O)[C@H]2O)[C@H](C)Cl)N(C)C1 -3.77% and 1.89%
CCc1cc(C(=O)NCC2Cc3cc(C)cc(-c4cc(C(C)=O)ccc4F)c3O2)n(C)n1 (stereo unspecified) -36.4%
O=c1ccn(C2OC(COP(=O)(O)OP(=O)(O)OP(=O)(O)O)C(O)C2O)c(=O)[nH]1 (stereo unspecified) 5.18%
CN[C@@H]1[C@@H](O[C@H]2O[C@H](CO)[C@@H](N)[C@H](O)[C@H]2O)O[C@H]2C[C@@H](N)[C@@H](O[C@H]3[C@H](O)[C@@H](O)[C@H](N)C[C@@H]3N)O[C@@H]2[C@@H]1O -9.15%
CCS(=O)(=O)Nc1cc(C(=O)N[C@H]2CCCCNC2=O)c2c(c1)nc(-c1ccccc1)n2C -0.432%
c1cncc(CNc2cc(-c3ccoc3)ncn2)c1 -0.759%
COc1cc(CNC(=O)c2cnn(-c3ncc4c(n3)-c3ccccc3CC4)c2C)cc(OC)c1OC -26.2%
COc1ccc(-c2nc3cnc(N4CCN(C)CC4)nc3n(C)c2=O)cc1 4.49%
CCNc1ncc2nc(CCc3ccccc3)c(=O)n(-c3ccc(OC)cc3)c2n1 3.48%
C=C(CO)C1Cc2c(ccc3c(=O)c4c(oc23)COc2cc(OC)c(OC)cc2-4)O1 (stereo unspecified) -11.1%
CCN(CC)CCNC(=O)COc1ccc(Cl)cc1 0.364%
O=C(c1cnccn1)N1CCC[C@@]2(CCN(c3ccncc3)C2)C1 5.81%
CCCCC(CC)CN=C(N)NC(N)=NCCCCCCN=C(N)NC(N)=NCC(CC)CCCC (stereo unspecified) -34%
Cc1ccnc2ccc([N+](=O)[O-])cc12 -8.33%
CC(C)C(O)c1ccc2c(c1)CN(C(=O)c1ccccc1-n1cccn1)CCO2 (stereo unspecified) 0.274%
COC(=O)C1CCN(Cc2ccc3c(c2)CN(C(=O)c2cc(C4CC4)on2)CCO3)CC1 5.71%
C=C1CC[C@H](O)CC1=C/C=C1\CCC[C@]2(C)[C@@H]([C@H](C)CC[C@@H](O)C(C)(C)O)CC[C@@H]12 -0.281%
